Results reported in PubChem BioAssay AID1963576 (National Center for Advancing Translational Sciences (NCATS), 2024).
Screen size: about 46,000 compounds; about 60 (0.1%) were called active. Inconclusive results (about 3%) are left out. The call rests on the fitted dose curve; in most records, active means well fitted inhibition curve with a large enough effect; inconclusive means small, poorly fitted or top-dose-only effect; inactive means no such curve, though single readings can be large or run the other way. The list shows a part of the results.

Experiment: Primary qHTS assay for Inhibitors of ovarian cancer metastasis using an organotypic tumor microenvironment (TME) model. Further: nearly all actives have a fitted effect of over 65% in size.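 On activity change, negative = inhibition: plate controls were DMSO wells for no effect and tomatine positive control wells for full effect.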
Conditions: SKOV3ip1-GFP adhesion/invasion on 3D omental model, fluorescence; series mostly up to 45.8 µM; activity change, negative = inhibition: at the top concentration
Method in brief: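 Primary human omental fibroblast/mesothelial 3D culture pre-formed 48 h. SKOV3ip1-GFP cells added with compounds (0.36-46 umol/L), incubated 2 h RT/16 h 37 C, fixed; GFP cells quantified at 488/509 nm.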

Activity change, negative = inhibition, inactive:
CN(C)c1ccc(C(=O)Nc2sc(Nc3ccccc3)nc2C(N)=O)cc1 21.9%
O=C(Cn1ncn2c(cc3cc(F)ccc32)c1=O)NC1CCCCC1 -1.1%
Cc1ccc(NC(=O)CN(C)S(=O)(=O)c2cccc3cccnc23)c(C)c1 14.4%
CCOC(=O)C1CCC(CN(Cc2ccc(OC)cc2)S(=O)(=O)c2ccc(C)cc2)CC1 (stereo not drawn) 0.637%
CCc1ccc(CN(Cc2ccco2)c2cnc(S(C)(=O)=O)nc2C(=O)Nc2ccc(C)c(Cl)c2)cc1 2.69%
CCCC(=O)Oc1c(Sc2ccc(C)cc2)c(C)nn1-c1ccccc1 -6.86%
O=C(Nc1cc(Cl)cc(Cl)c1)c1ccc(F)c(S(=O)(=O)N2CCCC2)c1 -9.49%
CC1Cc2cc(S(=O)(=O)CCC(=O)Nc3cccc(F)c3)ccc2N1C(=O)C1CC1 (stereo not drawn) -6.63%
CC(=O)Nc1ccc(S(=O)(=O)N2CCC(N3CCN(Cc4ccc(C)cc4)C(=O)C3=O)CC2)cc1 3.29%
Cc1cc(C)cc(NS(=O)(=O)c2cc3[nH]c(=O)c(=O)[nH]c3cc2C)c1 0.461%
CCC(Sc1nc2cc3c(cc2c(=O)n1CCCCCC(=O)NCc1ccc2c(c1)OCO2)OCO3)C(=O)NCCCOC (stereo not drawn) -0.256%
COc1ccc(CCNC(=O)C(=O)NCC(c2ccco2)S(=O)(=O)c2cccs2)cc1 (stereo not drawn) 8.31%
Cc1cccc(OCCn2c(SCC(N)=O)nc3ccccc32)c1 -1.57%
Cc1nn2c(=O)cc(COC(=O)c3ccc(NC(=O)CCc4ccccc4)cc3)nc2s1 -5.17%
O=C(CN1C(=O)c2cccnc2Oc2ccc(Cl)cc21)NCCCN1CCCCC1 -2.39%
COc1cc2c(C(=O)N3CCN(c4cccc(Cl)c4)CC3)cn(C)c(=O)c2cc1OC -42.7%
O=C(Nc1cccc(Br)c1)Nc1nc2c(s1)CCCCCC2 -19.1%
Cc1c(Cl)cccc1NC(=O)c1cc(-c2cccc(Cl)c2)on1 -20.2%
CC(C)C(=O)Nc1ccccc1C(=O)OCc1cc(=O)n2nc(C3CC3)sc2n1 -2.3%
Cc1cccn2c(=O)c3cc(C(=O)NC(C)C)n(C)c3nc12 2.72%
O=C(Nc1ccc2nc(SCCOc3ccccc3)sc2c1)c1ccco1 -10.3%
COc1cccc(CCNC(=O)c2ccc(Cn3c(SCc4ccccc4)nc4cccnc43)cc2)c1 0.038%
COc1ccc(NC(=O)c2cnc(N3CCOCC3)c3ccccc23)cc1OC 2.29%
Cc1ccn2c(c1)nc(=O)c1cc(S(=O)(=O)N3CCCCC3)ccc12 -7.05%
CCOC(=O)N1CCC(NC(=O)c2cnn(-c3ccc(C)cc3)c2-n2cccc2)CC1 -1.1%
CCOc1ccc(NC(=O)Cn2cc(C(=O)c3ccc(F)cc3)c(=O)c3cc4c(cc32)OCO4)cc1 21.5%
Cc1ccccc1NC(=O)C1CCN(C(=O)c2ccc(F)cc2)CC1 10.5%
Cc1cccc(-c2noc(CNC(=O)c3ccco3)n2)c1 3.9%
CCOC(=O)c1ccc(NC(=O)C2Cc3ccccc3C(=O)O2)cc1 (stereo not drawn) 22.9%
COc1ccccc1-c1nn2c(=O)cc(CN3CCN(S(=O)(=O)c4ccc(C)cc4)CC3)nc2s1 3.18%
Cc1ccc(-n2nnnc2CNC(=O)c2ccc(F)cc2)cc1C 14.6%
CC(=O)Nc1ccc(C)cc1-c1nc2ccccc2n(CC(=O)c2ccc(Cl)cc2)c1=O 18.3%
COc1ccc(OC)c(CNC(=O)c2ccccc2NC(=O)c2nsc3ccccc23)c1 2.31%
Clc1ccc(COC(Cn2ccnc2)c2ccc(Cl)cc2Cl)c(Cl)c1 (stereo not drawn) -8.68%
Cc1ccc(N2CCn3c2nc2c3c(=O)n(CCCc3ccccc3)c(=O)n2C)cc1 -0.911%
Cc1c(Cl)cccc1NC(=O)Cn1nc(C(F)(F)F)c2c1CCC2 1.53%
Cc1ccc(CNC(=O)NC2COc3ccccc3C2)cc1 (stereo not drawn) 10.8%
Cc1ccc(C2=Nc3ccccc3N(CC(=O)Nc3ccccc3C)C(=O)C2)cc1C 1.38%
CCOc1ccccc1C(=O)N1CCN(CCc2ccccn2)CC1 -4.62%
CCN1CCOC(=O)C1CC(=O)Nc1cccc(OC)c1 (stereo not drawn) 2.85%
CC1=C(C(=O)Nc2ccccc2)C(c2cccc(O)c2)n2nc(-c3ccccc3Cl)nc2N1 (stereo not drawn) 6.58%
Cc1onc(-c2ccccc2Cl)c1C(=O)Oc1ccc(Br)cc1 3.19%
Cc1ccc(NC(=O)C2CCCN(S(=O)(=O)c3cccc4cccnc34)C2)c(Br)c1 (stereo not drawn) 5.9%
COc1ccc(CCNC(=O)c2c(C)oc3nc(C)nc(N4CCOCC4)c23)cc1OC -3.63%
Cc1cc(C)n(-c2nc3ccccc3nc2Nc2cccc(C(=O)NCCc3ccccc3)c2)n1 6.68%
CC(C)CC(=O)NCC(c1ccc2c(c1)OCO2)N1CCN(c2ccccc2F)CC1 (stereo not drawn) 3.12%
Cc1ccccc1N(C)C(=O)c1noc2c1COc1ccccc1-2 -9.21%
Cc1cccc(-c2nc(SCC(=O)NCC3CCCO3)c3c(=O)n(C)c(=O)n(C)c3n2)c1 (stereo not drawn) -4.75%
CCC(=O)Nc1ccc(C)cc1-c1nc2ccccc2n(C(C)C(=O)Nc2ccccc2CC)c1=O (stereo not drawn) 1.79%
CCC(CC)C(=O)Nc1ccc(C(=O)OCc2cc(=O)n3nc(C4CC4)sc3n2)cc1 -4.2%

outcome, inactive:
Cc1oc2c(cc(NS(=O)(=O)c3ccc(Br)cc3)c3ccccc32)c1C(=O)OCc1ccccc1
COc1cc(OC)c(C(=O)NCc2nc(-c3ccccc3)no2)cc1OC
O=C(Cn1nnc(-c2ccc(C(F)(F)F)cc2)n1)NCCc1ccccc1
CCc1noc(-c2ccc(N3CCC(C)CC3)c([N+](=O)[O-])c2)n1
CCOc1ccc(NC(=O)NC(C)c2c(-n3cccc3)sc3c2CCN(CC)C3)cc1 (stereo not drawn)
Cc1cccc(-c2nc3cc(NC(=O)c4ccc(OCC(C)C)cc4)ccc3o2)c1
COc1ccc(-c2nc3ccccc3n2Cc2ccc(C(C)C)cc2)cc1
Clc1cccc(N2CCN(c3ncnc4c3nc3n4CCCC3)CC2)c1
COc1cccc2cc(-c3cn4c(n3)sc3cc(F)ccc34)c(=O)oc12
COC(=O)c1cc2oc3ccccc3c2n1CC(=O)Nc1cc(OC)cc(OC)c1
Cc1cc(C)c(NC(=O)Cn2c(=O)n(CCc3ccccc3)c(=O)c3ccccc32)c(C)c1
Cn1cc(S(=O)(=O)N2CCCCCC2)cc1C(=O)NCc1ccc(Cl)cc1
CCN(c1ccc(OC)cc1)S(=O)(=O)c1nnc(NC(=O)COc2ccc(F)cc2)s1
